Assay results from the supplement of paper PMC3724861.
This is one part of the list.

System: T1, Caupolican (Caup) homeodomain DNA-binding domain
T1 sequence: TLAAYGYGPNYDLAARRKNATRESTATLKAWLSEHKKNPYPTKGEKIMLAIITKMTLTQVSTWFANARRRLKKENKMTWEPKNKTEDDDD
Assay: PBM E-score (8-mer, recovered from the published 9-mer minima) (E-score (dimensionless, -0.5 to 0.5)); Drosophila protein; higher = stronger relative binding preference, active = 0.31 or more
In short: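 Caup's homeodomain DNA-binding domain (residues 214-303) was made by in vitro transcription and translation and applied at 100 nM to custom-designed protein binding microarrays. Each value is an enrichment score that gives relative binding preference for a short DNA word, with higher meaning stronger. The 8-mer values were recovered from published 9-mer scores, each of which was the minimum of its two constituent 8-mer scores. A cutoff of 0.31 marks candidate sites.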

Sequence | PBM E-score
GCTGGCCA | inactive: -0.192
CTAGGGTC | inactive: -0.0576
CACGGGCG | inactive: -0.145
AGTTGCTA | inactive: 0.167
CAGACACA | inactive: 0.179
AGCCTTGA | inactive: -0.093
ATCGGTAA | inactive: 0.109
AGGCACAG | inactive: -0.0452
TCACTCGA | inactive: 0.0702
CGAGGCAA | inactive: -0.016
CGAATAAA | inactive: 0.00592
AACAGCGT | inactive: 0.145
AATCAGCT | inactive: 0.0751
CAAACCCC | inactive: -0.0734
CGTGACGC | inactive: -0.0156
ATTAACTG | inactive: 0.152
GATCGGAA | inactive: 0.052
GATAATGC | inactive: 0.0936
GAATAAGC | inactive: 0.0891
ACAAAGAA | inactive: 0.152
CTGAGGCC | inactive: -0.219
TGCTAGAA | inactive: 0.0542
GTCTCCTA | inactive: -0.0168
AAGCCGTA | ≥ -0.0277
AAGGCATA | inactive: -0.0141

Sequence | PBM E-score
AAGGCAGT | inactive: -0.0372
GTGGGTCA | inactive: -0.103
ACGTACGG | inactive: -0.00051
GATATCGC | inactive: 0.0708
ACGCATGG | inactive: -0.0779
CTGCTAAG | inactive: -0.143
AGACCGAA | inactive: -0.0369
GAATAGAA | inactive: 0.126
ATCGCTAA | ≥ 0.104
CGAGGGCA | inactive: -0.147
GCACACGA | inactive: -0.0434
AATCATTC | inactive: 0.0967
ATCGGTGC | inactive: 0.023
ACTAGACC | inactive: 0.023
AACTCGCC | inactive: -0.0173
ACACAACG | inactive: 0.206
ATACAAAG | inactive: 0.143
CACCTGTA | inactive: 0.177
GGAGGCAC | inactive: -0.154
ACTTACCG | inactive: 0.0553
AGGGAAAA | ≥ 0.0138
AAAAAGGG | inactive: -0.138
AGAGGGTC | inactive: -0.198
AACTGGGA | inactive: -0.054
GCTACCCA | inactive: -0.155

Sequence | PBM E-score
GACAGAGC | inactive: 0.0238
AAGTCGTC | inactive: 0.0133
CAACACAC | inactive: 0.246
CTGCATTC | inactive: 0.013
CGCAAGCG | inactive: -0.144
GGTCGGAC | inactive: -0.0568
AGCCGTTC | inactive: -0.195
ATATCAAA | inactive: 0.138
TACCCCTA | ≥ -0.0164
AGTGTAGA | inactive: 0.162
ACTCGATG | inactive: 0.143
CGCAGGGA | inactive: -0.29
ATCTAGAA | ≥ 0.0782
CCTTCTGA | inactive: -0.0769
ACTCTTTC | inactive: -0.0436
GCTCGCAA | inactive: -0.0483
AAAACCCA | inactive: 0.0445
ACTGGGTG | inactive: -0.0485
CCTCAGGA | inactive: -0.112
CCCCAAAA | inactive: -0.0955
ATATACGG | inactive: 0.0947
CCTAATAA | inactive: 0.0567
CTTCGTAA | inactive: 0.0215
CATCTAGG | inactive: -0.0637
ATGATAAA | inactive: 0.0893

Sequence | PBM E-score
GGATACGA | inactive: 0.089
ATAAGCCC | inactive: -0.0856
CAAATAGG | inactive: -0.00893
GGCATCAA | inactive: -0.0439
GAACTGTA | inactive: 0.0948
CTGTCAAC | inactive: 0.186
CTGCTCAC | inactive: -0.0607
AGACTTGG | inactive: -0.0701
GTAGTGCA | inactive: 0.116
ACACGACC | inactive: 0.215
CCATCACG | inactive: 0.00282
TCAAAAGA | inactive: 0.00721
GCAGAACC | inactive: -0.0847
CAAATTCG | inactive: 0.0219
AACTAACT | inactive: -0.00416
ATAGTTCC | inactive: -0.029
GCCGGTAA | inactive: -0.0522
CATCTCGA | inactive: 0.08
CCGGCCTC | inactive: -0.317
ACCTGCGA | inactive: 0.0067
CCTTCTGC | inactive: -0.215
TAGCTCGA | inactive: -0.0721
AATTTGTA | inactive: 0.199
CTGATGGC | inactive: -0.0471
GTATTCTA | inactive: 0.185

Sequence | PBM E-score
ATTGTTAG | inactive: 0.182
AGGAAACA | inactive: 0.221
AGGATAAA | inactive: 0.0626
AATTCGCG | inactive: -0.00488
ACCAACGC | inactive: 0.0138
ACAACATA | active: 0.411
AATCAGCA | inactive: 0.138
GACGACCA | inactive: -0.0136
CTATTATC | inactive: 0.0447
CCTGCCCC | inactive: -0.223
CCACTTAG | inactive: -0.0102
AACGCTCA | inactive: 0.0248
GACTCAAA | inactive: 0.0565
CTCTAAGA | inactive: -0.0219
CAGCGTCC | inactive: -0.0584
GATGAGTA | inactive: 0.156
CAATCTGC | inactive: 0.0136
ATTCCGGC | inactive: -0.165
CAAACACC | inactive: 0.126
ACAGCTTC | inactive: -0.0081
GTCTTACA | inactive: 0.272
GTAGGGAA | inactive: -0.00493
GTGGCTGA | inactive: -0.183
GTCTCAAA | inactive: 0.0277
GATTCACA | inactive: 0.104

Sequence | PBM E-score
AAAACCTG | inactive: 0.0857
ATAAGTGC | inactive: -0.00959
GAATCTTA | inactive: -0.0746
CAAAACCA | ≥ 0.102
CTCAAAAC | inactive: 0.0365
CGTCCTGA | inactive: -0.0533
CCCTCGTC | inactive: -0.0345
CAAACCTC | inactive: -0.123
CAGTTTAG | inactive: -0.0111
CGGGATGA | inactive: -0.0807
CAGTTCTA | inactive: 0.0212
CTCTACAG | inactive: 0.0625
GTTCACGA | inactive: 0.133
AAGATTCT | inactive: -0.0338
GGATGTAC | inactive: 0.305
AAACGCGG | inactive: -0.0824
ATAGCTAA | inactive: 0.0138
ATGGCTAA | inactive: 0.0375
CGGACGTA | inactive: -0.108
AATTAGGT | inactive: 0.119
CCGCCGAC | inactive: -0.0764
GCAAATGC | inactive: -0.0659
ATCGAATC | inactive: 0.017
ACTAGGAA | inactive: 0.103
ATCTCCCG | inactive: -0.156

Sequence | PBM E-score
CGTTAGTC | inactive: -0.0263
ATTAAGCC | inactive: -0.0864
CTCTGAAA | inactive: -0.0119
AGCGACCA | inactive: -0.01
GAGCAGTA | inactive: 0.029
CCGCCCGG | inactive: -0.283
CATCTATA | inactive: 0.0985
AATTATGC | inactive: 0.0678
GCCTCAGC | inactive: -0.198
AACGGTAC | inactive: 0.116
AGCCAGCA | inactive: -0.136
TGAGTCAA | inactive: 0.0775
CTACTTTA | inactive: 0.0405
CTCGTGTC | inactive: 0.26
GCATTCGC | inactive: -0.112
AATGATCA | inactive: 0.0957
ACGCCCTC | inactive: -0.116
ATCGGGGG | inactive: -0.264
CGAAGGTC | inactive: -0.156
ATTGGCTC | inactive: -0.0325
CGTTGCGC | inactive: -0.201
GACAAAAA | inactive: 0.0647
GAATACAA | inactive: 0.299
GCGAAAGA | inactive: -0.063
AGCGAAAT | inactive: -0.0402

Sequence | PBM E-score
CATTCCCG | inactive: -0.0527
ATTCACTC | inactive: 0.0438
AAAACCAA | inactive: 0.0331
ACTGTTCT | inactive: 0.125
CCTACGTC | inactive: -0.0962
ATGAATTA | inactive: 0.0989
ATCAGTCG | ≥ 0.114
CATTAACC | inactive: 0.115
AAAGGCCG | inactive: -0.194
GTGTCAAA | inactive: 0.294
ACGAGACA | inactive: 0.155
ATCTATGG | inactive: -0.111
AATGGGTG | inactive: -0.014
ATACTTGG | inactive: -0.0236
GGGGAGTA | inactive: -0.163
GTATACAA | active: 0.318
GCGCATCC | inactive: -0.151
AAGAGAGA | inactive: -0.0648
GCCGGTAC | inactive: 0.0223
ATTTCAAG | inactive: 0.138
GGCAGTAC | inactive: 0.0248
CCATTGGG | inactive: -0.154
GTACGGGA | inactive: -0.00659
AATCTCAC | inactive: 0.0114
ACATGTCC | active: 0.438

Sequence | PBM E-score
CAGTACAA | inactive: 0.304
AAAAGCTT | inactive: -0.00649
CAGTGATA | inactive: 0.0736
CATCCTCA | inactive: 0.0114
AATTCCAG | inactive: 0.0238
AATTTAAG | inactive: 0.0614
AGTGTCCA | inactive: 0.0872
CGACGCCA | ≥ -0.107
AAAAGCGG | inactive: -0.177
CCGCGAAG | inactive: -0.228
AATTGTAG | inactive: 0.21
CTTTATGA | inactive: 0.0237
GAGAGTCC | inactive: -0.209
ACCTCGAT | inactive: -0.0401
AAGACAGG | inactive: 0.0947
CGACTAAA | inactive: 0.0743
AGCACAGG | inactive: -0.0841
TCACTAAA | inactive: 0.0581
ATCACGAA | inactive: 0.104
AAATAAAG | inactive: 0.0192
TCCGCGAA | ≥ -0.0716
GACAGTTA | inactive: 0.054
AGATCACG | inactive: 0.0499
